In all, about 110,000 compounds were measured (“z-score”: median about -0.1, highest 2% from about 2 on). This is one part of the list. The source made the active and inactive calls.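 Rule for the calls: active = z-score in the third read window above 3 or below -3; inactive = the rest.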 Non-standard residues stand in square brackets, D forms with d. Residues, ends and D or L forms follow the SMILES beside them. ξ: configuration not given here. *: point of attachment. Cbz = O=C(OCc1ccccc1)*; OBn = c1ccc(CO*)cc1; ξP = O=C(O)C1CCCN1

The results in this text go back to PubChem BioAssay AID488969 (Vanderbilt High Throughput Screening Facility, 2010).

This assay concerns the target Metabotropic glutamate receptor 8 (Rattus norvegicus) (UniProt P70579). Put plainly: rat mGluR8 modulators via GIRK flux, primary screen, cell-based, thallium flux, HTS (AID 488969). The following applies: HEK293 rat mGluR8, GIRK (G protein-gated inwardly rectifying potassium channel) thallium flux, FluoZin2; at 10 µM; stronger effect = higher value; submaximal glutamate (EC20) added with thallium.
Sequence of UniProt P70579 (P70579 whole entry, looked up): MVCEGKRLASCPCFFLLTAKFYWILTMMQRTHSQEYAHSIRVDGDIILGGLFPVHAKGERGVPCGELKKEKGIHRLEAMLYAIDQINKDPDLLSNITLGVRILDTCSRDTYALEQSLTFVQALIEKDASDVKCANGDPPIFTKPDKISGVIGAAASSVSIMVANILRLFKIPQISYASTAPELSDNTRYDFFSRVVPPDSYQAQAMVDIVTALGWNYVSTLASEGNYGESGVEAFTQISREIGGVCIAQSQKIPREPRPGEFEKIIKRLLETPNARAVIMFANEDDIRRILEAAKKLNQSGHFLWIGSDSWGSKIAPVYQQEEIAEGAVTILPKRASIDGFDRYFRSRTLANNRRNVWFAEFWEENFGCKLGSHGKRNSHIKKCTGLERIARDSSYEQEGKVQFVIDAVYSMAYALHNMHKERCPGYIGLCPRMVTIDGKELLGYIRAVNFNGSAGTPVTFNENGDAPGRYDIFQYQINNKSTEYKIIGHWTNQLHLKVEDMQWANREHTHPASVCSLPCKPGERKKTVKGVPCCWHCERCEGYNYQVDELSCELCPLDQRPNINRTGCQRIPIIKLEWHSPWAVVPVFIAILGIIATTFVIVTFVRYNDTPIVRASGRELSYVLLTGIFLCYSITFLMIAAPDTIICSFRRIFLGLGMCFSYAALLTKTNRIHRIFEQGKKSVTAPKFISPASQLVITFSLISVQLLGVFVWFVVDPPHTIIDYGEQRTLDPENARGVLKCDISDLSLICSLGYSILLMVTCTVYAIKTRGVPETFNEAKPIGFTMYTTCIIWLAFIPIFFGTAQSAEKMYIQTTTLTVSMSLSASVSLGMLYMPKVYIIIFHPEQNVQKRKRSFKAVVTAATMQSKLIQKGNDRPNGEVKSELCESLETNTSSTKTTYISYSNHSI
Consider `CCC(C)(C)NC(=O)CN(C(=O)CCC(=O)Nc1ccccn1)c1ccc(F)c(Cl)c1`, for which the z-score turned out to be 0.638.

In turn, `COc1ccc(-c2ccc(/C=N/NC(=O)c3cccnc3)o2)c([N+](=O)[O-])c1` registered a z-score of 0.101.

On to `O=[N+]([O-])c1ccc(N2CCN(c3ccccc3O)CC2)c(Cl)c1`, for which the z-score is -0.0782.

In the case of `CCN(CC)S(=O)(=O)c1ccc(NC(=O)C2CCCO2)cc1` (stereo not given), the z-score is -0.205.

In turn, `CC1=NN(c2ccc(N)cc2)C(=O)C1` gave a z-score of 0.0103.

`COc1ccc(CCN(C)C(=O)c2ccc(S(=O)(=O)NCc3ccco3)cc2)cc1OC`: the z-score is -0.228.

For `Cc1ccc(NC(=S)c2nc3ccccc3s2)cc1`, the z-score came to 0.791.

As to `CC(=O)Nc1sc2c(c1C(c1ccc(F)cc1)N1CCOCC1)CCCC2` (stereo not given), the z-score is -0.267.

Molecule `Cc1c(NC(=O)c2cc(C3CC3)on2)c(=O)n(-c2ccccc2)n1C` gave a z-score of 0.0831.

Regarding `Cc1ccc(-n2c(SCc3nc4ccccc4c(=O)[nH]3)nnc2-c2ccccc2O)cc1`, the z-score was -0.814.

`O=C(NC12CC3CC(CC(C3)C1)C2)c1cnccn1`: the z-score was -0.0644.

In the case of `COc1cccc(OC)c1C(=O)Nc1cccc(C(C)=O)c1`, the z-score was -0.129.

In turn, `O=C(CN1CCCCC1)Nc1ccccc1NC(=O)CN1CCCCC1` registered a z-score of 0.172.

As for `CCN(CC)S(=O)(=O)c1ccc2oc(C(=O)N3CCc4ccccc4C3)c(C)c2c1`, the z-score was -0.125.

In the case of `CCCCn1c(C)cc(C)c(S(=O)(=O)c2ccccc2C)c1=O`, the z-score was -0.799.

Consider `CSc1ccc(CNc2ccc(C)cc2)cc1`, for which the z-score was -0.0586.

`CCn1nnc2sc3c(c2c1=O)CCC(C)C3` (stereo not given): the z-score was -0.816.

Turning to `CCOC(=O)CSc1nc2c(sc(=S)n2Cc2ccco2)c(=O)n1-c1ccc(F)cc1`, the z-score was -0.18.

`Brc1cccc(OCCn2ccnc2)c1`: the z-score is -0.132.

In the case of `O=C1SCCc2c1n(Cc1ccccc1)c1ccccc21`, the z-score is -0.124.

Consider `COCCNC(=O)CN1CCOc2ccccc21`, for which the z-score is -0.153.

`O=C(NCc1ccccn1)c1cc2n(n1)C(C(F)(F)F)CC(c1ccco1)N2` (stereo not given) yielded a z-score of 0.542.

`Cc1cc(C)n(C(=O)CNC(=O)C(c2ccccc2)c2ccccc2)n1`: the z-score is -0.473.

Turning to `Cc1ccc(NC(NC(=O)c2cccs2)C(Cl)(Cl)Cl)cc1C` (stereo not given), the z-score was -0.404.

`Cc1ccc(Nc2nc(C)cc(C)n2)c(Br)c1` gave a z-score of 1.6.

With `O=C(COc1ccc(S(=O)(=O)N2CCCCC2)cc1)N1CCCCCC1`, the z-score was -0.493.

As for `O=C(CCl)Nc1ccccc1Sc1ccccc1`, the z-score was -0.216.

In the case of `O=C(Nc1cccc(F)c1)NC1CCCCC1`, the z-score amounted to 0.258.

With `CCON1C(=O)CN(C(=O)OC)C1c1ccc(Cl)cc1Cl` (stereo not given), the z-score is -0.254.

Regarding `Cc1ccccc1Nc1nnc(SCC(=O)Nc2ncc(C(F)(F)F)cc2Cl)s1`, the z-score is -0.219.

`COc1ccccc1CC(=O)Nc1c[nH]c(=O)[nH]c1=O`: the z-score amounted to 0.0579.

Consider `CCCCn1nc2cc(C(=O)NCc3ccco3)ccc2c1OCC`, for which the z-score was -0.226.

`CCCC(=O)NC(c1ccco1)c1c(O)ccc2ccccc12` (stereo not given): the z-score is -0.329.

As to `CCOC(=O)c1cnc(Nc2nc3ccccc3o2)nc1CN1CCN(c2ccccc2)CC1`, the z-score came to 0.234.

`Cc1cc(=O)oc(C)c1C(=O)OCC(=O)c1ccc(Cl)c(Cl)c1`: the z-score worked out at 0.0176.

Turning to `Clc1ccccc1-c1nc(N/N=C/c2cccnc2)c2ccccc2n1`, the z-score is -1.17.

Molecule `COc1ccc(OC(C)C(=O)Nc2cccnc2)cc1` (stereo not given) displayed a z-score of 1.27.

In turn, `CC12COC3(C(=O)Nc4nccs4)CC1CCC32C` (stereo not given) yielded a z-score of 0.102.

As to `Cc1ccc(C)c(NS(=O)(=O)c2cc(C(=O)NCc3ccccn3)ccc2Cl)c1`, the z-score is -0.345.

For the molecule `CCOC(=O)N1CCN(C(=O)c2ccc3c(=O)n(CCOC)c(=O)[nH]c3c2)CC1`, the z-score was -0.201.

`CCOCCCNCC(=O)Nc1ccc(OC(F)(F)F)cc1`: the z-score worked out at 0.312.

As for `O=C(c1cccs1)[C@@H]1[C@@H]2C(=O)N(Cc3ccc4c(c3)OCO4)C(=O)[C@@H]2C2c3ccccc3C=CN21` (stereo not given in full), the z-score is -0.104.

In the case of `O=C1CCCCC1S(=O)(=O)c1ccccc1` (stereo not given), the z-score came to 0.22.

Take `O=C(Nc1nsc(-c2ccccc2)n1)c1cccs1`: the z-score was -0.31.

In the case of `C[C@H](NC(=O)Nc1cccc(C(F)(F)F)c1)C(=O)O`, the z-score came to 0.557.

Take `NS(=O)(=O)c1ccc(NS(=O)(=O)c2cccs2)cc1`: the z-score is -0.115.

With `Cn1ncc(Br)c1C(=O)OCC(=O)Nc1nc(-c2ccccc2)cs1`, the z-score was -0.654.

`O=C(CN1C(=O)c2ccccc2S1(=O)=O)NC1CC2CCC1C2` (stereo not given): the z-score is -1.05.

With `COCC(C)NC(=O)NC(=O)c1ccc(Cl)cc1` (stereo not given), the z-score was -0.141.

Take `COc1ccc(NC(=O)Cc2coc3cc(C)c(C(C)C)cc23)cc1S(=O)(=O)N1CCOCC1`: the z-score is -0.503.

Consider `CC(C)=CCc1c(C)nc2ccccc2c1C(=O)O`, for which the z-score is -0.313.

On to `CCCCN(CCCNC(=O)C1CCN(S(=O)(=O)N2CCOCC2)CC1)c1ccccc1`, for which the z-score was -1.17.

As to `Cc1ccc(Cn2c(=O)c3ccccc3n3c(CCC(=O)O)nnc23)cc1`, the z-score was determined as 1.86.

As for `CCSc1nc(-c2ccc(OC)cc2)ccc1C#N`, the z-score was -0.353.

As to `Cc1cccc(N2CCN(Cc3oc(CO)cc(=O)c3O)CC2)c1C`, the z-score is -0.0974.

`Cc1cc(C)nc(SC2CCCCC2NS(=O)(=O)c2ccccc2)n1` (stereo not given): the z-score was -0.037.

For the molecule `Clc1ccc(OCCCn2cncn2)cc1Cl`, the z-score is -0.372.

Take `Cc1ccc(/C=C2\CCC3=C2OC(N)=C(C#N)C3c2ccc(C)cc2)cc1` (stereo not given): the z-score was determined as 0.44.

On to `COc1ccc(C2=NOC(C(=O)Nc3cc(C)nn3-c3ccccc3)C2)cc1OC` (stereo not given), for which the z-score was -0.0749.

`CCOC(=O)c1ccc(NC(=O)Cn2nnc(-c3ccc(C)cc3)n2)cc1`: the z-score was -1.18.

Consider `Cc1cc(C)cc(-n2c(=O)c3sccc3n(CC(=O)NCc3ccco3)c2=O)c1`, for which the z-score was -0.198.

Turning to `CCOc1ccc(NC(=O)CC2C(=O)N(c3ccccc3)C(=O)N2Cc2ccccn2)cc1` (stereo not given), the z-score was 0.114.

Consider `CCOc1nc(C)ccc1-c1noc(-c2ccco2)n1`, for which the z-score worked out at 0.24.

For the molecule `CCOC(=O)COC(=O)c1ccc(Oc2cc(C)nc(SC)n2)cc1`, the z-score was -0.774.

Consider `CCCc1[nH]nc2c1C(c1ccc(OCCN3CCOCC3)c(OCC)c1)C(C#N)=C(N)O2` (stereo not given), for which the z-score was -0.892.

The molecule `Cc1ccc(-c2noc(CCC(=O)Nc3cccc(C#N)c3)n2)cc1` showed a z-score of 0.556.

Molecule `CS(=O)(=O)N(CC(=O)NC1CCCCC1)c1cccc(Cl)c1` registered a z-score of 1.03.

On to `COc1ccccc1NC(=O)Cc1noc(CSc2nnc(N)s2)n1`, for which the z-score was -0.249.

For `CCn1c(SCC(=O)Nc2cc(NC(C)=O)ccc2OC)nnc1-c1cccnc1`, the z-score was -0.0584.

Regarding `COc1ccc(NC(=O)C2(c3ccc(NC(=O)c4ccc(OC(C)=O)cc4)cc3)CCCC2)cc1`, the z-score is -0.0269.

`O=[N+]([O-])c1cc(Cl)cc(C2=NCCN2)c1`: the z-score came to 0.173.

Turning to `CCCCCN(C(=O)NC(=O)Nc1ccccc1OC)S(C)(=O)=O`, the z-score came out at 1.25.

Regarding `COc1ccc(NC(=O)CCC(=O)OCC(=O)c2ccc(Oc3ccc([N+](=O)[O-])cc3)cc2)cc1`, the z-score was -0.475.

As to `O=C1NCCN1C(=O)c1ccccc1F`, the z-score is 0.555.

As to `COc1ccc(/C(C)=N/Nc2cc(C(F)(F)F)ccc2Cl)c(OC)c1`, the z-score is -0.148.

`Cc1nc2ccccn2c1/C(O)=C1\C(=O)C(=O)N(CCCn2ccnc2)C1c1ccncc1` (stereo not given) had a z-score of 0.355.

Regarding `Cc1ccc(NC(=O)/C(=C\c2ccc([N+](=O)[O-])cc2)NC(=O)c2ccccc2)cc1`, the z-score is -0.085.

Take `CCC(Oc1ccccc1)C(=O)Nc1ccc(-c2nnc(-c3ccco3)o2)cc1` (stereo not given): the z-score is -1.36.

As to `COc1ccc(CNC(=O)COC(=O)c2cc(-c3ccc(Cl)s3)nc3ccccc23)cc1`, the z-score was -0.432.

Regarding `CCOCc1cn(CC(=O)c2ccc(Cl)cc2)c(C)nc1=N`, the z-score is -0.0215.

In the case of `CCn1c(SCC(=O)NCc2ccc(C)cc2)nnc1-c1ccncc1`, the z-score was -0.152.

Regarding `COc1ccc(C(=O)NC(=S)N2CCC(C)CC2)cc1`, the z-score was active: 14.2.

`CCN(CC(=O)NC(C)C)C(=O)c1ccc(S(=O)(=O)N(C)c2ccccc2OC)cc1` yielded a z-score of 0.236.

In the case of `COc1ccccc1OCC(=O)N/N=C/C=C/c1ccc([N+](=O)[O-])o1`, the z-score was -0.316.

For `FC(F)Sc1ccc(NC(=S)NC2CCCCC2)cc1`, the z-score is -0.326.

Turning to `COc1ccc(C(=O)Nc2ccc(F)cc2F)cc1OC`, the z-score is -0.179.

In turn, `O=C1c2ccccc2-c2nc3ncnn3c(-c3ccccc3)c21` displayed a z-score of 0.11.

Turning to `CCn1c(Cc2ccccc2)nnc1SCC(=O)Nc1ccc(N)cc1`, the z-score is -0.314.

Regarding `Cc1nc(N)sc1-c1csc(Nc2ccccc2)n1`, the z-score is -0.33.

Take `Cc1c(-n2cc(C(=O)c3cc(Cl)ccc3O)cc(C#N)c2=O)c(=O)n(-c2ccccc2)n1C`: the z-score worked out at 0.462.

Take `Cc1cc2c(cc(C(=O)OC(C(=O)NCc3ccco3)C(C)C)n2C)o1` (stereo not given): the z-score is -0.314.

`Cc1ccc(S(=O)(=O)CCc2nnc(N)s2)cc1C` registered a z-score of 0.747.

In the case of `OC(COc1ccc2c(c1)CCC2)CN1CCN(c2cccc(Cl)c2)CC1` (stereo not given), the z-score worked out at 0.306.

As for `Cc1ccc(N2CCN(CCCCN3C(=O)C4CCCN4C3=O)CC2)cc1` (stereo not given), the z-score is -0.179.

With `CC1(C(=O)NCc2ccccc2)Oc2ccccc2NC1=O` (stereo not given), the z-score is -0.0508.

Take `O=C(CNC(=O)OCc1ccccc1)NCC(=O)N1CCCC1C(=O)OCc1ccccc1` (stereo not drawn) (Cbz-Gly-Gly-[ξP]-OBn): the z-score is 0.112.

Take `Cc1cccc(Oc2cc(NC(=O)Cn3cnc([N+](=O)[O-])n3)cc([N+](=O)[O-])c2)c1`: the z-score was -0.113.

Consider `CC(C)NS(=O)(=O)c1ccc(NC(=S)NC(=O)c2cccc([N+](=O)[O-])c2)cc1`, for which the z-score was -0.0995.

With `Cc1ccc(NC(=O)c2cc(NC(=O)c3ccco3)ccc2N2CCOCC2)cc1`, the z-score is -0.747.

`CCN1C(=O)/C(=C/C=C2/Sc3ccc4ccccc4c3N2CCO)SC1=S`: the z-score was -0.294.

On to `CN(C)c1ccc(C=NCCC2(O)CCOC(C)(C)C2)cc1` (stereo not given), for which the z-score was -0.256.

As to `O=C(Nc1ccc(NC(=O)c2cccs2)cn1)c1ccco1`, the z-score came to 1.94.

For `Cc1cc(/C=C2/NC(=O)NC2=O)c(C)n1-c1sc2c(c1C#N)CCCC2`, the z-score was -0.0154.

`O=C(NC1CCCCC1)C(c1ccncc1)N(C(=O)Cn1nnc(-c2cccs2)n1)C1CCCC1` (stereo not given) returned a z-score of 1.25.

Consider `COc1ccc(NC(=O)C2CCCCN2S(=O)(=O)c2ccc(F)cc2)cc1` (stereo not given), for which the z-score is -0.283.

With `COc1ccc(/C=C(/C(=O)NCc2ccccc2)c2ccccc2)cc1`, the z-score is -0.482.

Consider `C/C(=N\OC(=O)NC1CCCCC1)c1sc(-c2ccccc2)nc1C`, for which the z-score was -0.257.

For `Cc1ccc(Nc2nc(CSc3nnnn3-c3ccccc3)cs2)cc1`, the z-score was -0.0548.

`Cc1cnc(C(=O)OCC(=O)Nc2ccc(Cl)cc2)cn1`: the z-score was -0.632.

Turning to `CC(C)c1cccc(C(C)C)c1NC(=O)COc1nncc2ccccc12`, the z-score was -0.361.
